Experimental data taken from PubChem BioAssay AID504832 (National Center for Advancing Translational Sciences (NCATS), 2011).
About 18,000 (5.8%) of roughly 310,000 compounds were called active. This list was built around the results that the source calls inconclusive (neither active nor inactive); the mix of calls is not that of the screen. Calls come from the whole dose curve; as a rule, active = well fitted inhibition curve with a large enough effect; inconclusive = small, poorly fitted or top-dose-only effect, or another doubt; inactive = no such curve, though single readings can be large or run the other way. No potency is given beside an inconclusive call; the fits are too rough.

Assay: Primary qHTS for delayed death inhibitors of the malarial parasite plastid, 48 hour incubation
Conditions: P. falciparum luciferase growth in erythrocytes; series mostly up to 28.7 µM
Summary of the method: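 Growth was read as firefly luciferase luminescence after a 48 h, 37 C, 5% CO2 exposure of compounds to reporter-bearing P. falciparum cultures (0.1% parasitemia, 2% hematocrit final) in Albumax-supplemented RPMI 1640.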
Potency is the fitted concentration of half-maximal effect; tags give direction and shape of the fitted curve.

| Compound | Potency |
| --- | --- |
| CN(C)c1nc(N)ncc1-c1ccc(Oc2ccccc2)cc1 | inconclusive [inhibitor, single point] |
| CCN(C(=O)COC(=O)CCCOc1ccccc1)c1c(N)n(Cc2ccccc2)c(=O)[nH]c1=O | inconclusive [inhibitor, single point] |
| CSc1nc(N(C)C)nc(N(C#N)CCOC(C)=O)n1 | inconclusive [inhibitor, partial curve, poor fit] |
| CCCCn1c(C)cc2c(c1=O)C1O[C@](CCCC)(Cc3cc(C#N)ccc31)O2 | inconclusive [inhibitor, partial curve, poor fit] |
| CCNC(=O)C/C(C)=N/NC(=O)C(=O)Nc1ccc(CC)cc1 | inactive |
| CCCN(CC(=O)Nc1ccccc1OC)C(C)C(=O)NC(C)CCc1ccccc1 (stereo not drawn) | inconclusive [inhibitor, partial curve, poor fit] |
| CCOc1ccc(-n2c(SCc3ccc([N+](=O)[O-])cc3)nnc2-c2ccccc2)cc1 | inconclusive [inhibitor, single point] |
| Cc1cc(C(=O)COc2ccc(Br)cc2F)c(C)n1C1CC1 | inconclusive [inhibitor, partial curve, poor fit] |
| Cc1cc(C)cc(OCC(=O)N/N=C/c2ccc([N+](=O)[O-])o2)c1 | active: 9.28 µM |
| N#C/C(=C/c1cn(CC(=O)O)c2ccccc12)C(=O)NCc1ccccc1 | inactive |
| COc1ccc(-c2cc(=O)c3c(OC)c(OC)c(OC)c(OC)c3o2)cc1OC | inactive |
| N#Cc1ccc(NC(=O)Nc2ccc(Oc3ccc(NC(=O)Nc4ccc(C#N)cc4)cc3)cc2)cc1 | active: 1.65 µM |
| CCOc1ccc(-c2ncncc2-c2ccccc2OC)c(O)c1 | active: 2.94 µM |
| COC(=O)CC1=C(C(=O)OC)C(c2ccncc2)C(C#N)=C(N)O1 (stereo not drawn) | inconclusive [inhibitor, partial curve, poor fit] |
| CC(C)Cc1ccc(CN2CCCC(NC(=O)c3cccc(-n4cnnc4)c3)C2)cc1 (stereo not drawn) | active: 13.1 µM |
| COc1cc2c(C(=O)N3CCOCC3)c(CSc3ccccc3)n(C)c2cc1Br | inactive |
| O=C(NC12CC3CC(CC(C3)C1)C2)c1ccc(COc2ccc(Cl)cc2[N+](=O)[O-])o1 | inconclusive [inhibitor, single point] |
| CC(=O)Nc1ccc2sccc2c1 | inconclusive [inhibitor, partial curve, poor fit] |
| CCC(=O)Oc1ccc(C(=O)Nc2cccc(C(=O)NC(C)(C)C)c2)cc1 | inconclusive [inhibitor, partial curve, poor fit] |
| CCOc1ccc(-c2nc(N)ncc2-c2ccccc2OC)c(O)c1 | inconclusive [inhibitor, partial curve, poor fit] |
| Cc1cccc(-c2ncc(CN3CCN(CCC(C)C)C(CCO)C3)cn2)c1 (stereo not drawn) | inconclusive [inhibitor, single point] |
| CCOCCCNC(=O)c1ccc2c(c1)ncn2-c1ccc(CC)cc1 | inconclusive [inhibitor, partial curve] |
| Cc1nc2ccccc2c(=O)n1NC(=O)/C=C/c1ccc(Br)cc1 | inactive |

| Compound | Potency |
| --- | --- |
| COc1ccc(CCn2c(C(C)C)nc3c(c(=O)c4ccccc4n3C)c2=O)cc1 | active: 11.7 µM |
| CCc1cc(=O)oc2cc(C)cc(OC(C)C(=O)NCc3ccncc3)c12 (stereo not drawn) | inconclusive [inhibitor, single point] |
| CC(=O)c1ccccc1N(C(=O)c1ccco1)C(C(=O)NC1CCCC1)c1ccc(N2CCOCC2)cc1 (stereo not drawn) | inconclusive [inhibitor, partial curve] |
| CCn1c(COc2ccccc2)nnc1SCC(=O)Nc1ccc(N2CCOCC2)cc1 | inconclusive [inhibitor, single point] |
| CC(C)(C)n1nnnc1C(c1cccnc1)N(Cc1ccccc1)Cc1ccco1 (stereo not drawn) | active: 2.94 µM |
| CCCCCCOC(=O)Nc1ccc(S(=O)(=O)Nc2cccc([N+](=O)[O-])c2)cc1 | inactive |
| CCCc1nc(SCC(=O)N2CCC(C)CC2)c2c(=O)n(C)c(=O)n(C)c2n1 | inconclusive [inhibitor, single point] |
| Cc1cccc(NC(=O)CSCC(=O)Nc2cccc(S(=O)(=O)N3CCCCCC3)c2)c1 | inconclusive [inhibitor, partial curve] |
| CC(C)Cn1c(N)c(C(=O)CSc2nc3ncc(Cl)cc3[nH]2)c(=O)n(C)c1=O | inconclusive [inhibitor, single point] |
| CCCCOc1ccc(C(O)C(CN2CCOCC2)c2ccccc2)cc1 (stereo not drawn) | inconclusive [inhibitor, full curve] |
| CCN(C(=O)CSc1nc2ccc(OC)cc2[nH]1)c1c(N)n(Cc2ccccc2)c(=O)[nH]c1=O | inconclusive [inhibitor, single point] |
| COc1ccc(CCn2c(SCCN3CCCCC3)nc3ccccc3c2=O)cc1OC | inconclusive [inhibitor, single point] |
| COc1ccc(C(=O)Nc2ccccc2C(=O)N2CCCCCC2)cc1OC | inconclusive [inhibitor, partial curve, poor fit] |
| CCC(=O)Nc1cccc(-n2nnnc2SCC(=O)NCc2ccco2)c1 | inactive |
| O=[N+]([O-])c1cccc(/C=N/Nc2nc(NCc3ccccc3)nc(N3CCOCC3)n2)c1O | active: 6.57 µM |
| O=C(N/N=C\c1ccc2c(c1)OCO2)c1ccco1 | inactive |
| CC(C)[C@H](NC(=O)CCCn1nnc2ccccc2c1=O)C(=O)O | inactive |
| O=C(NCc1ccc2c(c1)OCO2)C1CCN(c2ccc(S(=O)(=O)N3CCCC3)cc2)CC1 | active: 10.4 µM |
| O=C(COc1ccc(-c2nnco2)cc1)N1CCN(S(=O)(=O)c2ccc3ccccc3c2)CC1 | inconclusive [inhibitor, partial curve] |
| Cc1cc(CC(=O)O)c(C)n1-c1ccc(Cl)cc1 | inconclusive [inhibitor, single point] |
| Cc1ccnc(NS(=O)(=O)c2ccc(NC(=O)CCc3ccccc3)cc2)n1 | inactive |
| CN(Cc1cccs1)C(=O)CSc1nc(N)cc(N)n1 | inactive |
| O=C1C2C3C=CC(C3=C(c3ccccc3)c3ccccc3)C2C(=O)N1CCO (stereo not drawn) | inconclusive [inhibitor, partial curve, poor fit] |

| Compound | Potency |
| --- | --- |
| C=CCC1(CC=C)CCCN1C(=O)c1cc(COc2cccc(OC)c2)on1 | inconclusive [inhibitor, single point] |
| CCN(C(=O)c1cc(Cl)ccc1OC)c1ccccc1 | inconclusive [inhibitor, partial curve, poor fit] |
| COc1ccc(NC(=O)COC(=O)CCNS(=O)(=O)c2ccccc2)cc1OC | inactive |
| CC(NC(=O)/C(C#N)=C/c1cn(-c2ccccc2)nc1-c1ccc(F)cc1)c1ccccc1 (stereo not drawn) | inconclusive [inhibitor, partial curve] |
| CCOc1ccc(CCNC(=O)C2CCN(c3ccc(N4CCOCC4)nn3)CC2)cc1OCC | inconclusive [inhibitor, partial curve, poor fit] |
| Cc1ccccc1C(=O)/C(C#N)=N/Nc1c(C)n(C)n(-c2ccccc2)c1=O | active: 1.65 µM |
| CCC(C)N(C)C1CCN(C(=S)Nc2cccc(OC)c2)CC1 (stereo not drawn) | inconclusive [inhibitor, single point] |
| COc1cc2cc(C(c3nnnn3C3CCCC3)N3CCc4ccccc43)c(=O)[nH]c2cc1OC (stereo not drawn) | inconclusive [inhibitor, partial curve, poor fit] |
| CC(C)c1cc(=O)oc2c3c4c(cc12)CCCN4CCC3 | active: 11.7 µM |
| CCOC(=O)c1c(-c2ccccc2)csc1NC(=O)c1ccc(S(=O)(=O)N2CCOCC2)cc1 | inactive |
| COc1ccccc1OCC(=O)NCC1CCCCC1 | inactive |
| Cc1ccccc1CC(=O)Nc1cccc(S(=O)(=O)N2CCCC2)c1 | inconclusive [inhibitor, single point] |
| S=C(NCc1ccc(Cl)cc1Cl)NC1CCCCC1 | inconclusive [inhibitor, single point] |
| O=C(Nc1cccc(S(=O)(=O)N2CCCCCC2)c1)c1ccc(=O)[nH]c1 | inconclusive [inhibitor, single point] |
| COc1ccc(OC)c(S(=O)(=O)N2CCN(c3ccccc3)CC2)c1 | inactive |
| CC(=O)N(CCc1ccccc1C)Cc1cc2cc(C)ccc2[nH]c1=O | inconclusive [inhibitor, single point] |
| Cn1c(=NC(=O)c2ccccc2[N+](=O)[O-])sc2cccc(F)c21 | inactive |
| CCCn1c(SCC(=O)N2CCCc3ccccc32)nc2c1c(=O)n(C)c(=O)n2C | inconclusive [inhibitor, partial curve, poor fit] |
| O=C(Cn1cnc2ccccc2c1=O)NC1CCS(=O)(=O)C1 (stereo not drawn) | inactive |
| CC1CCCCC1NC(=O)CCCCCn1c(=S)[nH]c2ccccc2c1=O (stereo not drawn) | inconclusive [inhibitor, partial curve] |
| COCCN(C(=O)CSc1n[nH]c(-c2ccc(OC)cc2)n1)c1c(N)n(Cc2ccccc2)c(=O)[nH]c1=O | inconclusive [inhibitor, single point] |
| CCOC(=O)Cn1nc(C)n(-c2ccc(Br)cc2)c1=O | inactive |
